Measured values: PubChem BioAssay AID686979 (National Center for Advancing Translational Sciences (NCATS), 2013)
The whole screen tested about 420,000 compounds, of which about 50,000 (12%) were called active. Inconclusive results, whose numbers are uncertain, are shown with a selection of clear calls. The call rests on the fitted dose curve; in most records, active means well fitted inhibition curve with a large enough effect; inconclusive means small, poorly fitted or top-dose-only effect; inactive means flat fitted curve, though single readings scatter. No potency is given beside an inconclusive call; the fits are too rough.

Assay: qHTS for Inhibitors of human tyrosyl-DNA phosphodiesterase 1 (TDP1): qHTS in cells in presence of CPT; further: nearly all actives have a fitted effect of over 55% in size
Conditions: chicken DT40 Tdp1-/-;hTDP1 cells + 20 nM CPT, ATP luminescence, 48 h; series mostly up to 46.2 µM
Procedure, shortened: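 Chicken DT40 Tdp1-/- cells complemented with human TDP1, 400 cells/well, exposed to compounds plus 20 nM camptothecin for at least 48 h at 37 C; viability read as ATP content by CellTiter-Glo luminescence.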
Potency means the concentration at half of the fitted maximal effect; tags describe the fitted curve by direction and shape.

Which Potency does the source give for CC12CCC(c3c1nc1ccccc1[n+]3[O-])C2(C)C (stereo unspecified) here?
Its Potency is inconclusive [inhibitor, single point].

Which Potency does the source give for Cc1ccc(N2CCN(C(=O)C3CCN(S(=O)(=O)c4ccc5c(c4)oc(=O)n5C)CC3)CC2C)cc1 (stereo unspecified) here?
The Potency was active: 5.8 µM.

For CCOC(=O)c1ccccc1NC(=O)c1ccccc1SC, which Potency is on record?
The Potency was inconclusive [inhibitor, single point].

With CCOc1ccccc1NC(=O)c1cnccn1 as the compound, how does the Potency read?
Its Potency is “inactive”.

Which Potency does the source give for CCOC(=O)c1nn(-c2ccc(F)cc2)c(=O)cc1OCC(=O)Nc1ccc(F)c(F)c1 here?
Its Potency is “inactive”.

With COc1ccc(NC(=O)c2csc3c2CCCCC3)c(OC)c1 as the compound, how does the Potency read?
The Potency was “inactive”.

For CCOc1ccc(C2=CC(c3cccc(Br)c3)n3c(nc4ccccc43)N2)cc1Cl (stereo unspecified), which Potency is on record?
The Potency was inconclusive [inhibitor, single point].

With NC(=S)N/N=C1\CC(n2nnn(-c3cccc(Cl)c3)c2=S)C2COC1O2 (stereo unspecified) as the compound, how does the Potency read?
Its Potency is “inactive”.

With Cc1ccccc1OCCn1c(=N)n(C(C)C)c2ccccc21 as the compound, how does the Potency read?
Its Potency is active: 8.2 µM.

With Cc1cc(NC(=O)c2cc(-c3cccc(Cl)c3)on2)n(-c2ccccc2)n1 as the compound, how does the Potency read?
The Potency was inconclusive [inhibitor, partial curve].

For Cc1cc(C)cc(C(=O)Nc2ccncc2)c1, which Potency is on record?
The Potency was inconclusive [inhibitor, single point].

Which Potency does the source give for Cn1cc(CC(=O)N2CCN(c3ccccc3F)CC2)c2ccccc21 here?
Its Potency is inconclusive [inhibitor, partial curve].

Which Potency does the source give for COc1ccccc1CCNCc1cc2cccc(C)c2nc1-c1cccs1 here?
The Potency was “inactive”.

For CCCCN(C(=O)c1ccc(-c2ccc([N+](=O)[O-])cc2)o1)c1c(N)n(CCCC)c(=O)[nH]c1=O, which Potency is on record?
Its Potency is inconclusive [inhibitor, single point].

For CN1CCN(C(=S)c2cn(CCOc3ccccc3F)c3ccccc23)CC1, which Potency is on record?
Its Potency is inconclusive [inhibitor, single point].

Which Potency does the source give for Cc1cccc(OCc2nc(CC(=O)Nc3ccc(C)c(C)c3)cs2)c1 here?
The Potency was inconclusive [inhibitor, single point].

Which Potency does the source give for CCc1ccc(C(O)(C(C)C)C(CN2CCOCC2)c2ccccc2)cc1 (stereo unspecified) here?
The Potency was active: 16.4 µM.

For CCOc1ccc2nc(N(CCCN(C)C)C(=O)c3ccc(S(=O)(=O)N4CCc5ccccc5C4)cc3)sc2c1, which Potency is on record?
The Potency was inconclusive [inhibitor, single point].

With CCCOc1ccc(C(O)C(CN2CCOCC2)c2ccccc2)cc1 (stereo unspecified) as the compound, how does the Potency read?
The Potency was “inactive”.

Which Potency does the source give for O=C(COC(=O)c1cc(S(=O)(=O)N2CCCCC2)ccc1N1CCOCC1)c1ccccc1Cl here?
Its Potency is “inactive”.

With O=C(Nc1nccs1)C1CCCN1/C=C/C(=O)C(F)(F)F (stereo unspecified) as the compound, how does the Potency read?
Its Potency is “inactive”.
